{"source": "the supplement of paper PMC10338343", "note": "± gives the standard deviation. In all, about 3,000 sequences were measured (“pre-steady-state target cleavage rate”: median about 0.0079, highest 2% from about 0.2 on). Only a part is listed here, and it is no random draw.", "data": [{"system": "MILI (PIWIL2) piRISC loaded with piRNA #2 (26 nt)", "test": "pre-steady-state target cleavage rate (min^-1); MIWI and MILI are mouse PIWI proteins and EfPiwi is from a freshwater sponge; tags in brackets are library labels; higher = faster piRNA-guided slicing of the target", "settings": "guide: piRNA #2 5'p-UUAGGUAACCCAGUAGAUCCAGAGGA; auxiliary factor: 500 nM mouse GTSF1", "method": "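Cleave-'n-Seq: a library of target RNAs (target site embedded in constant flanks, ACAGCATTCCGCGTTAGTGATATCCG... 5' flank; DNA-blocked outside the site) at 0.1 nM was incubated with 1 nM active mouse MILI or MIWI piRISC (synthetic 5'-monophosphorylated piRNA guide) with or without 500 nM mouse GTSF1 at 33 °C for 1 min to 16 h. Uncleaved targets were sequenced and normalised to non-target controls, and the pooled three trials were fitted to a burst-and-steady-state model to give the pre-steady-state cleavage rate (min^-1; k3 is constrained to at most 1e-4). Sequence is the target site only; target names encode pairing extent (gX:gY) and contiguous / 1-mismatch / 2-mismatch / bulge geometry. Fits with R² ≤ 0 are excluded.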", "values": [{"sequence": "CUUAAGCUCUGGAACUACUGGGUUUCCUAA", "pre-steady-state target cleavage rate": "0.0736 ± 0.03"}, {"sequence": "CUUAAGGACUGAAUCUACUGGGUUACCUAA", "pre-steady-state target cleavage rate": "0.019 ± 0.011"}, {"sequence": "CUUAACCUCUGGAUCUACUGGGUUAUCUAA", "pre-steady-state target cleavage rate": "0.082 ± 0.018"}, {"sequence": "CUUAUGCACUGGAUCUACUGGGUUACCUAA", "pre-steady-state target cleavage rate": "0.12 ± 0.015"}, {"sequence": "CUUAACCUCUGGAUGUACUGGGUUAGCUAA", "pre-steady-state target cleavage rate": "0.0271 ± 0.011"}, {"sequence": "CUUAACCUCAGGAUGUACUGGGUUACCUAA", "pre-steady-state target cleavage rate": "0.0727 ± 0.016"}, {"sequence": "CUUAAGCUGUGGAUCUACUGGGUAACCUAA", "pre-steady-state target cleavage rate": "0.00606 ± 0.006"}, {"sequence": "CUUAUCCUCGUGGAUCUACUGGGUUACCUAA", "pre-steady-state target cleavage rate": "0.0461 ± 0.025"}, {"sequence": "CUUAAGGAGACCUAGAUGUGCGUUACCAAA", "pre-steady-state target cleavage rate": "< 0.0001"}, {"sequence": "CUUAACCUCUCGAUGUACUGGGUUACCUAA", "pre-steady-state target cleavage rate": "0.0988 ± 0.02"}, {"sequence": "CUUAAGGUCUGGAUCUACUGGGAUACCUUA", "pre-steady-state target cleavage rate": "0.00686 ± 0.0031"}, {"sequence": "CUUAAGCUCUGGAUCUACUGGGAAACCUAA", "pre-steady-state target cleavage rate": "0.0263 ± 0.009"}, {"sequence": "CUUAAGGAGAGGAUCUACUGGGUUACCUCAA", "pre-steady-state target cleavage rate": "0.007 ± 0.0047"}, {"sequence": "CUUAUCCUCUGGAUCUACUGGGUUAACCUAA", "pre-steady-state target cleavage rate": "0.131 ± 0.024"}, {"sequence": "CUUAUCCUGUCGAUCUACUGGGUUACCUAA", "pre-steady-state target cleavage rate": "0.114 ± 0.02"}, {"sequence": "CUUAAGGUCUGGAUCUACGGGGUUACCUAA", "pre-steady-state target cleavage rate": "0.0826 ± 0.0095"}, {"sequence": "CUUAACGUCUGGAUGUACUGGGUUACCUAA", "pre-steady-state target cleavage rate": "0.0455 ± 0.025"}, {"sequence": "CUUAACGUCUGGAUCAACUGGGUUACCUAA", "pre-steady-state target cleavage rate": "0.0578 ± 0.014"}, {"sequence": "CUUAAGGACAGGAUGUACUGGGUUACCUAA", "pre-steady-state target cleavage rate": "0.0124 ± 0.01"}, {"sequence": "CUUAACCUCUGGAUCUACUGGAUUACCUAA", "pre-steady-state target cleavage rate": "0.0249 ± 0.0075"}, {"sequence": "CUUAACCUCUGGAUCUACUGGGUAACGUAA", "pre-steady-state target cleavage rate": "0.0352 ± 0.014"}, {"sequence": "CUUAUCCUCUGGAUCUACACCGUUACCUAA", "pre-steady-state target cleavage rate": "0.00605 ± 0.002"}, {"sequence": "CUUAACCUCUGGUUCAACUGGGUUACCUAA", "pre-steady-state target cleavage rate": "0.117 ± 0.035"}, {"sequence": "CUUAAGGUCUGGGUCUACUGGGUUACCUAA", "pre-steady-state target cleavage rate": "0.0913 ± 0.015"}, {"sequence": "CUUAAGUUCUGGAUCUACUGGGUUACCUAA", "pre-steady-state target cleavage rate": "0.0903 ± 0.012"}, {"sequence": "CUUAAGCUCUCGAUCUACUGGGAUACCUAA", "pre-steady-state target cleavage rate": "0.0459 ± 0.013"}, {"sequence": "CUUAUCCUGUGGAUCUACUGGGUUUCCUAA", "pre-steady-state target cleavage rate": "0.0398 ± 0.015"}, {"sequence": "CUUAAGGAGUGGAUUUACUGGGUUACCUAA", "pre-steady-state target cleavage rate": "0.0478 ± 0.014"}, {"sequence": "CUUAUCCUCUGGAUCUACUGGGUUACCCUAA", "pre-steady-state target cleavage rate": "0.132 ± 0.049"}, {"sequence": "CUUAAGCUCUGGAUCUACUGGGUUACCUAG [g2:g24:cont:t1G]", "pre-steady-state target cleavage rate": "0.0912 ± 0.024"}, {"sequence": "CUUAUCCUCUGGUUCUACUCGGUUACCUAA", "pre-steady-state target cleavage rate": "0.0121 ± 0.0067"}, {"sequence": "CUUAAGGAGUGGAUCUACUGGGUUACCGAA", "pre-steady-state target cleavage rate": "0.00748 ± 0.0052"}, {"sequence": "CUUAAGGUCUCGUUCUACUGGGUUACCUAA", "pre-steady-state target cleavage rate": "0.0124 ± 0.0075"}, {"sequence": "CUUAAGGUUUGGAUCUACUGGGUUACCUAA", "pre-steady-state target cleavage rate": "0.0865 ± 0.016"}, {"sequence": "CUUAAGGAGUGGAUGUACUGGGUUACCUAA", "pre-steady-state target cleavage rate": "0.026 ± 0.018"}, {"sequence": "CUUAAGGAGAGGAUCUACUGGGGUUACCUAA", "pre-steady-state target cleavage rate": "0.00359 ± 0.0024"}, {"sequence": "CUUAAGGAGAGGAUUUACUGGGUUACCUAA", "pre-steady-state target cleavage rate": "0.0136 ± 0.0065"}, {"sequence": "CUUAAGGAGUGGAUCUACUGGGUUACCCUAA", "pre-steady-state target cleavage rate": "0.0105 ± 0.0063"}, {"sequence": "CUUAACCUCUGGAUCUACUGGGUUACCGAA", "pre-steady-state target cleavage rate": "0.139 ± 0.035"}, {"sequence": "CUUAACCUCUGGAUCUACGGGGUUACCUAA", "pre-steady-state target cleavage rate": "0.0813 ± 0.012"}, {"sequence": "CUUAAGGAGAGCAUCUACUGGGUUACCUAA", "pre-steady-state target cleavage rate": "0.0622 ± 0.024"}, {"sequence": "CUUAACCUCUGCAUCUACUGGGUUACGUAA", "pre-steady-state target cleavage rate": "0.155 ± 0.069"}, {"sequence": "CUUAACGUCUGGAUCUACUGGGUUAGCUAA", "pre-steady-state target cleavage rate": "0.0718 ± 0.021"}, {"sequence": "CUUAUCCUCUGCAUCUACUGGGUUAGCUAA", "pre-steady-state target cleavage rate": "0.145 ± 0.054"}, {"sequence": "CUUAAGGUGUGGUUCUACUGGGUUACCUAA", "pre-steady-state target cleavage rate": "0.0301 ± 0.014"}, {"sequence": "CUUAAGGUCUGGAUCUAUGGGUUACCUAA", "pre-steady-state target cleavage rate": "0.0249 ± 0.0085"}, {"sequence": "CUUAAGCUCGGGAUCUACUGGGUUACCUAA", "pre-steady-state target cleavage rate": "0.0377 ± 0.025"}, {"sequence": "CUUAAGGAGAGGAUGUACAGGGUUACCUAA", "pre-steady-state target cleavage rate": "0.00394 ± 0.0038"}, {"sequence": "CUUAAGGAGUGGAUCUACAGGGAUACCUAA", "pre-steady-state target cleavage rate": "0.0177 ± 0.0073"}, {"sequence": "CUUAACCUCUGGAUCUACUGGGUUAGGUAA", "pre-steady-state target cleavage rate": "0.00918 ± 0.0056"}, {"sequence": "CUUAACCUCAGGAUCUACUGGGUUACCAAA", "pre-steady-state target cleavage rate": "0.0502 ± 0.016"}, {"sequence": "CUUAAGGAGUGGAAUCUACUGGGUUACCUAA", "pre-steady-state target cleavage rate": "0.00766 ± 0.0037"}, {"sequence": "CUUAAGCUCUGGAUCUAAUGGGUUACCUAA", "pre-steady-state target cleavage rate": "0.0186 ± 0.0042"}, {"sequence": "CUUAAGGUCUGGAUCUACUGGGUUAGCCUAA", "pre-steady-state target cleavage rate": "0.0884 ± 0.018"}, {"sequence": "CUUAUCCUCUGGAACUACUGGGUUACCAAA", "pre-steady-state target cleavage rate": "0.13 ± 0.044"}, {"sequence": "CUUAAGCUCUGGACUCUACUGGGUUACCUAA", "pre-steady-state target cleavage rate": "0.0196 ± 0.0083"}, {"sequence": "CUUAAGGAGUGGAUCUACUGGGUUACGCUAA", "pre-steady-state target cleavage rate": "0.0247 ± 0.0093"}, {"sequence": "CUUAAGGAGACCUAGAUGACGGUUACCUGAA", "pre-steady-state target cleavage rate": "< 0.0001"}, {"sequence": "CUUAAGGUCUGGAUCAACAGGGUUACCUAA", "pre-steady-state target cleavage rate": "0.063 ± 0.011"}, {"sequence": "CUUAAGGACUGGAUCUACAGCGUUACCUAA", "pre-steady-state target cleavage rate": "0.0134 ± 0.006"}, {"sequence": "CUUAAGCUCUGGAUCUACUGGGGUUACCUAA", "pre-steady-state target cleavage rate": "0.0152 ± 0.005"}, {"sequence": "CUUAAGGUCUGGAUCCUACUGGGUUACCUAA", "pre-steady-state target cleavage rate": "0.03 ± 0.011"}, {"sequence": "CUUAAGGAGUGGAUCAACUGGGUUACCUUA", "pre-steady-state target cleavage rate": "0.00839 ± 0.0055"}, {"sequence": "CUUAAGGAGAGGAUCUACUGGGUCUACCUAA", "pre-steady-state target cleavage rate": "0.00349 ± 0.0035"}, {"sequence": "CUUAAGGUCAGGAUCUACUGGGUUUCCUAA", "pre-steady-state target cleavage rate": "0.0151 ± 0.0084"}, {"sequence": "CUUAUCCUCUGGAUCUAUUGGGUUACCUAA", "pre-steady-state target cleavage rate": "0.139 ± 0.036"}, {"sequence": "CUUAAGGUCUGGAACUACUGGGUUACGUAA", "pre-steady-state target cleavage rate": "0.00872 ± 0.0071"}, {"sequence": "CUUAAGCUCAGGAUCUACUGGGUUACCUUA", "pre-steady-state target cleavage rate": "0.0671 ± 0.017"}, {"sequence": "CUUAAGGUCUGGAUCUACAGGGUUACCAAA", "pre-steady-state target cleavage rate": "0.106 ± 0.017"}, {"sequence": "CUUAAGGUCCGGAUCUACUGGGUUACCUAA", "pre-steady-state target cleavage rate": "0.0517 ± 0.023"}, {"sequence": "CUUAAGGUGUGGAUCUACUGGGUUACGUAA", "pre-steady-state target cleavage rate": "0.00525 ± 0.0044"}, {"sequence": "CUUAUCCUCUGGAUCGUACUGGGUUACCUAA", "pre-steady-state target cleavage rate": "0.00562 ± 0.0042"}]}]}
